Among the data in publication PMC8664900 are binding values, retold here.

One experiment addresses T1, GST-Vac8 (S. cerevisiae) (UniProt P39968).
T1 sequence: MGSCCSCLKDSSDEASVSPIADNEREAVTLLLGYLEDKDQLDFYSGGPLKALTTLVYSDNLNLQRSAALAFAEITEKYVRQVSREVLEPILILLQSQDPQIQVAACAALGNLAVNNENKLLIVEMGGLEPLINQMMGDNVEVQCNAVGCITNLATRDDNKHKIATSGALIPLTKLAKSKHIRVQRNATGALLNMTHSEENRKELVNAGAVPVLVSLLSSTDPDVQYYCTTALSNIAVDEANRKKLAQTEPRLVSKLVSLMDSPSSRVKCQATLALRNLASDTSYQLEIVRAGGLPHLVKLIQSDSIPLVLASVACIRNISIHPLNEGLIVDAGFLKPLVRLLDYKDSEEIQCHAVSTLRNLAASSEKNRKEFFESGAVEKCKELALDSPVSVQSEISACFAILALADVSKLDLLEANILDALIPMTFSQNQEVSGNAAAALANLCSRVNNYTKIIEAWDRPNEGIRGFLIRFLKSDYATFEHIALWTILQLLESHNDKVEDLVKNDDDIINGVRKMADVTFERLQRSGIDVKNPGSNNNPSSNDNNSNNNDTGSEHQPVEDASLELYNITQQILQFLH
The experiment can be described thus: pull-down; GST fusion from E. coli bound to Glutathione Sepharose 4B beads, incubated 1 h at 4 °C with cleared Sf9 lysate containing 8xHis-Atg11; anti-Atg11 western blot; only the target purified. In general terms: Immunoblotting shows a protein as a band on a membrane.

The target of experiment [1] is T2, GST-Atg19^3D (S390D, S391D, and S396D) (S. cerevisiae) (UniProt P35193).
T2 sequence: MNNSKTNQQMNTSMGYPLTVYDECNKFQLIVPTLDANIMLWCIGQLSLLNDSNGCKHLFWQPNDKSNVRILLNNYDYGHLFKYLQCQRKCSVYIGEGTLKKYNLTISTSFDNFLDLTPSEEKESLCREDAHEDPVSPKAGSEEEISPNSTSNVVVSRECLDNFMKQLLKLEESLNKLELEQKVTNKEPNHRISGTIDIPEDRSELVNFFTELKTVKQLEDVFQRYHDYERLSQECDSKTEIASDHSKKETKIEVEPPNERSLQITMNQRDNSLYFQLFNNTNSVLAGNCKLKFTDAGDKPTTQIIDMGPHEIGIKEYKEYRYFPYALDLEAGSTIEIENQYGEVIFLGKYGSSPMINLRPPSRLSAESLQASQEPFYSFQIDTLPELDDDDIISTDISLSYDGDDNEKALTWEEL
Described as above.

Results are given in words; binding and its absence hold for the method and conditions named. Binding seen in cells or lysates may run through a third protein. Some results given as binding are weak or reduced against the parent protein; the word gives no strength. Sequences can lack the tags named with a protein.

B1: 8xHis-Atg11 (protein, UniProt Q12527 1-1178)
chain: MADADEYSTAPTQQEITPLQTTATIINAISGECITTNVDFFVSLDKFKQFIARKWKIPPDQLLILLPYGNKLKPSMFKELLINRSFTLNDFYVYDRRLFSLVSKPTPTNLLTSKDSNPMNSPNSNDLTETLEYLIKNSHISQYQGSDTIMIKPMPSPLEDADVDLSRLNYHSVTSLLTTNLGWLSALEIDVHYFKSLIPDIIAHIKRIFDGLTVCSQYLKLYCFDVESLYNSNVQFLNQLVDNGMTSKWEKCFNDTLSKLTALEGDSLQKFINIESLLENEKSVKILNHSINGKLNKIKREIDENASFRDIITVNIDRLRQMFTPNESKFELEDQMAESFEVLVSEMRTRSRNVLDKEEEEFNSQEFLKSMNVMLEKDKKESVKTLFTISQALYSQIGELIDLKKSLQKHAVAILGNIAFTQMEILGIKRLLLNECNKDLELYKKYEVEFAQVEDLPLIYGLYLIEKYRRLSWFQQILSFISNFNQDLELFKQNELRTRNKWVKNFGSIATVFCEDLLSSSDFKRLNEYHSHTSPPNEDEEDENENSIANYRQDLVKVSQAIDNYMTQIKETDVSEPIIDLLSKTLFETKRFHIIYSNFKNNNNNSSNGNSISPEGSIALKSDDVVKGYKTRIKKLESLLHEFQYSDIGHWPQGVLNTHLKPFRGSATSINKKKFLGASVLLEPANISEVNIDSVSQANNHQIQELESNVDDLLHQLQLLKEENNRKSMQISEMGKKISDLEVEKTAYRETLTNLNQELARLTNEEQSHRTEIFTLNASFKKQLNDIISQDNEKIEKLTGDYDDVSKSRERLQMDLDESNKKHEQEVNLLKADIERLGKQIVTSEKSYAETNSSSMEKGEKFETIPLAEDPGRENQISAYTQTLQDRIFDIISTNIFILENIGLLLTFDNNNNIQIRRVKGLKKGTAQSNILDESTQMLDAHDNSLIKSPVFQKLKDEYELIKSVANGSEKDTQQSIFLGNITQLYDNKLYEVAVIRRFKDIETLAKKLTKENKIKRTLLERFQREKVTLRNFQIGDLALFLPTRENVNSVGSMSSSTSSLSSSFSSVDLSTPPPLDAMSIQSSPSVIHSNVINQASISGRDKNKLMRPWAAFTAFEESTRYFLKDEKGLTKGKEWFVGRIVTLEHFVADSPSNNPFRLPKGSVWFQVTAVVVSYQGV
For B1, the binding result with GST-Vac8 (S. cerevisiae) was “binds weakly”; in experiment [1] it was “binds”.
